In the supplement of paper PMC11417369:
± gives the standard deviation of the averaged measurements. The list shows a part of the results.

Test system: PfAP2-G AP2 domain (GST-tagged)
Experiment: gcPBM binding intensity (ln(normalized median fluorescence intensity)); higher = stronger DNA binding
Procedure, shortened: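 Binding intensity values are the highest Masliner-normalised natural-log median intensity among replicate spots of either probe orientation. The binding step lasted 1 h in 1× PBS with 1% milk, 0.2 mg/ml BSA, 0.5% salmon testes DNA and 0.03% Triton X-100, using GST-tagged P. falciparum DNA-binding domains expressed in E. coli on an Agilent 4 × 180k array of primer-extended double-stranded 36-bp intergenic genomic probes plus negative controls. Alexa488 anti-GST antibody and a 488 nm scan detected bound protein.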

Sequence	gcPBM binding intensity (ln)
TCATATGTGAAACACACACACACACCCAAAAAAACA [CACACA_site3247]	10.3 ± 0.41
TGTTTCTTATTTTTTTCACACACTAATCATTTCAAA [CACACA_site8695]	10.2 ± 0.16
ATTATGTTATTATTTTGTACACATAAATAATACGTT [XGTACX_site816]	11.2 ± 0.69
GAACAAAAATACTTATGTACACATTAGCAAGGAAAA [XGTACX_site5622]	11.3 ± 0.73
TGTTAATTTCATTTTCTACACACCTATCCTTTTTTT [CACACA_site8157]	10 ± 0.11
ACAAATAAATATTCGCGTACTTATATAATATTACGA [XGTACX_site6428]	11.4 ± 1
AACAAACAAATAGTTTATTTTGATTTTTTTAAAAAT [CACACA_negctrl_site693]	9.75 ± 0.2
AAACAAAAAAGAAGCACACATATATATATATATATG [CACACA_site2456]	10.2 ± 0.23
TATACGCATATATACACACACATATATATATATATA [CACACA_site3416]	10.2 ± 0.3
ATCTGAAAAATTAATAGTACAATTAATAATTAAACC [XGTACX_site8523]	10.9 ± 0.7
AAAAAAAATATCCGACGTACTATTTTCGTAGAAATA [XGTACX_site6292]	10.9 ± 0.56
AACTAATAAAAAAAAAAAACATTAAACAGGACAAAT [XGTACX_negctrl_site287]	10.1 ± 0.078
TAAACAAATAAATAAACACACAATATAGGTATATAT [CACACA_site7739]	9.73 ± 0.25
TTATTTTTAACGTACGCACACATATAAATATATTTA [CACACA_site1976]	11.5 ± 0.97
TAAAATATATTGCCAGTGCATAATATATGTAATTAT	9.93 ± 0.11
TTTTTTAAATATTAAAAATGGGATCTTATAACATAT [GTGCAC_negctrl_site666]	10 ± 0.2
TGTATAAACCCACGTACACACACTAAGTATATCCAA [CACACA_site1605]	11.3 ± 0.77
ATTTATTATATATAGTGTACGTTCTTAATTATAATT [XGTACX_site7480]	11.3 ± 0.73
AATAAAATATACTATTGTACATATGGAACTACTTGA [XGTACX_site8928]	10.9 ± 0.33
TTGTTTTTAGTTTATACACACCATATTAAAATAATG [CACACA_site5675]	10.4 ± 0.26
TATATAATATATTAATGTACTTAAAATATATTCTAT [XGTACX_site1235]	11.1 ± 0.89
TTGTATTACATAAATGTTCTTTATTATTTGATAAAA [CACACA_negctrl_site903]	9.76 ± 0.11

Sequence	gcPBM binding intensity (ln)
AATATATTTTTTTTTTGTACATATTGTAAAATAATA [XGTACX_site6805]	11 ± 0.62
ATATATTAATATACTCGTACATATTCTTATTGTGTA [XGTACX_site3728]	10.9 ± 0.58
TTCTCAAAGAAGAAAAAGTTTTTTTAATTTTTCTTT [XGTACX_negctrl_site543]	9.1 ± 0.62
AACCAATTATATTTACGTACGTACGGTTTTTTATAT [XGTACX_site1291]	11.5 ± 0.64
AATAAAAAATATAACACAAATATGTATATATATATA [TGCATGCA_negctrl_site245]	9.82 ± 0.37
ACATATAAAATGTATACACACAAATATTACATATAT [CACACA_site1472]	10.1 ± 0.11
CAAAAAAAAAAAAAAAATAAATAAAGGAAATAAAAA [CACACA_negctrl_site20]	9.66 ± 0.085
AAAAAAAAAAAAACAAGTACAAAGGATAGAAAAAAA [XGTACX_site4133]	11.2 ± 0.71
ATAGAATATTGATATTGTACGTTATCTTAAAACAAT [XGTACX_site1702]	11.1 ± 0.73
ATAAGAACGTCTATGTGTACGCAGCAAAACTGAGTT [XGTACX_site6385]	11.4 ± 0.88
GTGTAGTTAAAAAAAAGTACAGATTTTTTTTTTTTT [XGTACX_site849]	11.5 ± 0.88
TATACATTTATGTACACACACATATCTGTATATTTA [CACACA_site5617]	11.5 ± 0.97
TTTTGTATATATCACATTAAAAGAAAAAAATATATG [GTGCAC_negctrl_site120]	10.1 ± 0.26
GTATGTGTATGTGTATGTACATATGTATGTATAAAA [XGTACX_site8191]	11.2 ± 0.69
CACATTTAGAAATAGTTTTATTTTGTATATTCTATT [CACACA_negctrl_site1382]	10.03 ± 0.078
TCCTCAAAAAAATAAAATAATTTATACTTTTTTAAA [GTGCAC_negctrl_site724]	9.52 ± 0.23
TATATATATTTCCAGTGTACTTATTTTTTAATCAAT [XGTACX_site8220]	11.5 ± 0.89
ATTTTTTTGGAATTCACACACAAAAAAAAAAATAAA [CACACA_site2081]	10.2 ± 0.33
TTCAAAAGATATATCGTGCACATATATATGATGAAA	10.1 ± 0.26
AATTAGACATAATATACACACATATATTATATATAT [CACACA_site2691]	9.68 ± 0.2
GCAAAAACAAACGTCACACATACAAAGGCCGTGTAA [CACACA_site6043]	10.01 ± 0.042
TGGAGATAAAATAAAACACACACATATATATATATA [CACACA_site8683]	9.97 ± 0.35

Sequence	gcPBM binding intensity (ln)
ATACATTCTTATTACTGTACAGGGTTAATTATTTGT [XGTACX_site948]	11 ± 0.62
ATTATTTTATTTATTGGTACGTAATTGTAGATTTCT [XGTACX_site3697]	11 ± 0.64
ATGTTGAGTATATATACACACATACAGATATATATA [CACACA_site4967]	10.1 ± 0.24
TCCACACAATTTATAACATGCAAAAAGGCAATAATA [TGCATGCA_site773]	9.98 ± 0.23
TAGGTATATAAATAATGTACATATAAACTATATAGA [XGTACX_site2597]	11.1 ± 0.51
ATAAAATAAATATAACCACACACGAAAGAGAGAGAA [CACACA_site9075]	10.09 ± 0.057
TTTTTAGGAAAGGCGGCACACATTTATATATTTATT [CACACA_site3672]	9.95 ± 0.071
TTCGCCCTAAATAGAGTGCATTATATATATTAATAT	10.04 ± 0.021
TTCCAACCAATACAAACATGCATTTGAAAAAATGTA [TGCATGCA_site119]	9.85 ± 0.071
TTTATTTTATCATTTGCACACGCACGCCCACATAAA [CACACA_site353]	11.1 ± 0.82
CAAAATATATTGAATTGTACATAAAAATAAAAATTA [XGTACX_site4193]	11.1 ± 0.73
AGCAGTCAGCAGGACAGTACACAGTAGCCAGTAACT [XGTACX_site1999]	11.1 ± 0.74
ATTAATATATTTACCACACACCCATTTCGATTTTAT [CACACA_site3605]	10.2 ± 0.16
ATATGTAAAATATGGTGTACAATCAAATAAAAAAAA [XGTACX_site6270]	11.6 ± 0.95
CATATAAAAGGACACACACACACATATATATATATA [CACACA_site4674]	11.3 ± 0.79
TATTTTATTTTTTGTTGTACATATATATTATATATA [XGTACX_site4513]	11.3 ± 0.73
GATATATTACTTAAAATACACACCATGGAAAAGTTT [CACACA_site2606]	10.18 ± 0.035
GAATATGTTAACATTTGTACATAAAATTTTTTACAA [XGTACX_site2444]	11 ± 0.58
ATGTTTAAATTTTTCAGTACATATATTCTAGTAAAA [XGTACX_site1010]	11.1 ± 0.8
ATGGTTTTTATTTTATGTACTTACTAAAATGAATAA [XGTACX_site4317]	11.4 ± 0.88
TACATAAAAATATATGCATGTTCTTATTTAATAAAA [TGCATGCA_site743]	9.78 ± 0.33
AAAATATTATTACAGAAACAAAAAGAAAAATATATA [GTGCAC_negctrl_site285]	9.56 ± 0.12

Sequence	gcPBM binding intensity (ln)
AATATATATATATATCCACACACATACATATATTAA [CACACA_site7907]	9.76 ± 0.17
TATACGTATTTTATATGTACACATATACATATTTAT [XGTACX_site5301]	11.4 ± 0.79
TTTTCTTTTAAGTTTGTTTTACACTTTTTATTTTGA [CACACA_negctrl_site1581]	9.825 ± 0.092
AATATATGGTTTCATGATATTAAATTCAATTTAATG [GTGCAC_negctrl_site370]	9.97 ± 0.099
AAATATAAATATACTCGTACATATATATATATATAT [XGTACX_site6940]	11 ± 0.73
TGTTACATAAAATGCACACTTTCAAATATGCTAATA [CACACA_site2925]	9.99 ± 0.2
AAAAAAATCTCCAGTGTGCACAATCACATAATATAT [GTGCAC_site9833]	10.5 ± 0.18
GAGATAAAATAAAACACACACATATATATATAGAAT [CACACA_site2197]	9.855 ± 0.035
TATAAGCTAAGTTGTTGTACAAAAAGGAAAAGTATA [XGTACX_site3741]	11.1 ± 0.59
ACAATATAAAAAAATTGTACATAATATATAATATTA [XGTACX_site1040]	10.9 ± 0.48
CATGCTTATATGTGCACACACAAAAGAAAAGAAAAA [CACACA_site1655]	10.6 ± 0.62
ACTATATTTCATAACAGTACATATTCCTGAAACATC [XGTACX_site4924]	10.8 ± 0.33
TACCTTATGTTATATACACACATATAACATAATATA [CACACA_site6741]	9.92 ± 0.21
TTCCTTTGTTGTCGTTGTACTTATATGGTTATAATT [XGTACX_site3082]	11.3 ± 0.82
TATACATAAAAAAATTTTACCAGGTTAATACAAATA [CACACA_negctrl_site1171]	10.08 ± 0.085
ATTTAGAAAAATAAAACACACATATATCTGTAAATA [CACACA_site6119]	9.925 ± 0.021
ATATATATATATAGTAGTACTCTCTCTGTATATATA [XGTACX_site3754]	11.3 ± 0.75
ATCATTCTTAAACCGTGTACTTATTATTTTTTTTTT [XGTACX_site2798]	11.4 ± 0.84
TCTAATACACAATGTTGTACATATTAATATATATGT [XGTACX_site2931]	11.5 ± 0.89
AAATGACTATATAAAAGTACTAGAAAGTATAAATAT [XGTACX_site944]	10.9 ± 0.38
AAAATACACGATAGTTGTACATTAAATGTATACAAT [XGTACX_site360]	11.1 ± 0.61
CATCCGTTGATATATGCATGCATATTGTTATTACCA [TGCATGCA_site868]	10.01 ± 0.064
